Values marked as one replicate rest on one cluster of the flow cell; about a third of the high ones do not repeat.
Tested on: ATP
Assay: switch fluorescence ratio, 500 uM ATP over buffer (Cy3 cluster intensity, sum of 5 cycles each) (fold (ratio)); higher = stronger signal-on switching upon ATP binding; sequences stand for … in TCGTCGGCAGCGTCAGATGTGTATAAGAGACAGTTTTTTTTTTTTTTTTTTTTTTTTT…TC
Details: aptamer strand: ATP DNA aptamer (quencher-CACCTGGGGGAGTATTGCGGAGGAAGG + anchor), 100 nM annealed; ATP concentration: 500 uM; one replicate
Outline: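 Cy3-labelled switching-strand clusters on a modified Illumina MiSeq flow-cell were annealed to 100 nM quencher-labelled ATP aptamer, imaged in selection buffer, then imaged after 15 min with 500 uM ATP at 22 °C. Five buffer/ATP cycles ran, with NaOH stripping and re-annealing between them. The fluorescence ratio is summed target-cycle over summed buffer-cycle Cy3 intensity per cluster, averaged per switch-domain sequence. Clusters outside 100-1000 RFU were excluded.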
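Further: ATP exposure 15 min at 22 °C before imaging.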

Row | Sequence | switch fluorescence ratio
1 | TCTGCGCTAG | 1.17
2 | TCTGCGGGGC | 1.03
3 | TCTGGAAGCC | 1.03
4 | TCTGGAGGTC | 1.07
5 | TCTGGCACCC | 1.03
6 | TCTGGCGGAG | 0.996
7 | TCTGGCTTTC | 1.16
8 | TCTGGGACC | 0.989
9 | TCTGGGCAAT | 5.08
10 | TCTGGTTCTG | 0.976
11 | TCTGTAGTCG | 1.02
12 | TCTGTGGCGT | 0.97
13 | TCTGTGTCAA | 1.01
14 | TCTGTTCAAG | 1.01
15 | TCTGTTGAG | 0.978
16 | TCTGTTGCGG | 0.996
17 | TCTTAAGTG | 0.978
18 | TCTTACGTG | 0.968
19 | TCTTAGATAG | 0.991
20 | TCTTAGCGTT | 0.958
21 | TCTTATGTAT | 1.03
22 | TCTTATTGAT | 0.981
23 | TCTTCAAATG | 1.02
24 | TCTTCGCTAG | 1.75
25 | TCTTCTAACG | 1.07
26 | TCTTCTCTTA | 1.03

Row | Sequence | switch fluorescence ratio
27 | TCTTGAAGCA | 1
28 | TCTTGATCCC | 0.978
29 | TCTTGATCTC | 1.01
30 | TCTTGCATGC | 1.06
31 | TCTTGCGATC | 1.77
32 | TCTTGGCATT | 1.04
33 | TCTTGGTCCG | 0.965
34 | TCTTTAATC | 0.944
35 | TCTTTAGGTA | 0.981
36 | TCTTTCAGTG | 1.03
37 | TCTTTCATAC | 2.55
38 | TCTTTCCTTA | 1.02
39 | TCTTTCTAGG | 0.981
40 | TCTTTCTCAA | 1.06
41 | TCTTTGCTAA | 1.04
42 | TCTTTGTAGG | 1.04
43 | TCTTTGTCAT | 0.995
44 | TGAAAAAC | 1.08
45 | TGAAACCAAA | 0.995
46 | TGAAACCCC | 1.55
47 | TGAAACGTCG | 0.979
48 | TGAAAGGCAT | 1.03
49 | TGAAAGGTGA | 0.993
50 | TGAAATAGAC | 1.03
51 | TGAAATGTCG | 0.932
52 | TGAACAACAT | 1

Row | Sequence | switch fluorescence ratio
53 | TGAACAGACG | 1.05
54 | TGAACCTACG | 1.27
55 | TGAACCTGCA | 1.69
56 | TGAACTATAT | 0.992
57 | TGAACTCATT | 1.03
58 | TGAACTGAAT | 1.11
59 | TGAAGCAGTA | 1.24
60 | TGAAGCCAAG | 1.02
61 | TGAAGCCTC | 3.36
62 | TGAAGCCTGT | 0.987
63 | TGAAGCT | 0.965
64 | TGAAGGACAT | 1.02
65 | TGAAGGTCCT | 1.04
66 | TGAAGTCCCA | 0.985
67 | TGAATAGTT | 1.01
68 | TGAATCATTA | 1.02
69 | TGAATCCCGC | 1.03
70 | TGAATCTGAT | 0.989
71 | TGAATCTTTT | 0.985
72 | TGAATGCAGA | 0.975
73 | TGAATGCATT | 1.03
74 | TGAATGCCGC | 0.982
75 | TGAATGGTTG | 0.951
76 | TGAATGTGGG | 0.951
77 | TGAATTGACT | 0.999
78 | TGAATTGTGA | 0.965

Row | Sequence | switch fluorescence ratio
79 | TGACAACTAG | 1.03
80 | TGACACGGTC | 1.14
81 | TGACAGACTA | 1.07
82 | TGACAGCCG | 1.11
83 | TGACAGCTAA | 1.13
84 | TGACAGGCAA | 1.28
85 | TGACATATTT | 0.99
86 | TGACATGAGA | 0.995
87 | TGACATTGTT | 1.01
88 | TGACCAGTAA | 1.02
89 | TGACCATCCA | 0.998
90 | TGACCCGATA | 1.05
91 | TGACCCGCCT | 1.11
92 | TGACCCGGGA | 1
93 | TGACCCGTGA | 1.11
94 | TGACCCTACA | 1.29
95 | TGACCGGGGT | 1.01
96 | TGACCTTGTC | 0.992
97 | TGACCTTTCC | 3.28
98 | TGACGAAGGC | 0.951
99 | TGACGACTGG | 1.06
100 | TGACGGGAGA | 1.04
101 | TGACGTATGA | 1

— the supplement of paper PMC10126150
